From patent US8106075B2, “Insecticides” (Syngenta Crop Protection, Inc., priority 2004, dated 2012)

Columns and labels:
Plutella xylostella = assay: Example B7: activity against Plutella xylostella, sprayed cabbage plants; conditions: in Brassica oleracea, 72 h, read-out: percentage reduction in the population and in the feeding damage (% activity)
Spodoptera littoralis = assay: Example B8: activity against Spodoptera littoralis, sprayed soya plants; conditions: 72 h, read-out: percentage reduction in the population and in the feeding damage (% activity)

Structure (SMILES) | inhibition at 400 ppm (Plutella xylostella) | inhibition at 400 ppm (Spodoptera littoralis)
Cc1cccc(C(=O)NCC2CC2)c1NC(=O)c1cc(C(F)(F)F)nn1-c1ncccc1Cl [Compound P41] | > 80% | > 80%
Cc1cc(Cl)cc(C(=O)NCC2CCO2)c1NC(=O)c1cc(C(F)(F)F)nn1-c1ncccc1Cl (stereo not shown) [Compound P25, N-(4-chloro-2-methyl-6-[([oxetan-2-ylmethyl]amino)carbonyl]phenyl)-1-(3-chloro-2-pyridinyl)-3-(trifluoromethyl)-1H-pyrazole-5-carboxamide] | > 80% | > 80%
